About 540 (0.36%) of roughly 150,000 compounds showed an effect of 50% or more. Some of the results follow.
test system: Plasmodium falciparum; test: Primary screen in NF54 nanoGlo assay, in single point, at 2uM, 72h; a lower Z score goes with more inhibition; format: functional, Erythrocyte; settings: timepoint 72 hour

Compound | % Inhibition [%] | Z score
CN(CCc1cccc2ccccc12)CC(=O)NCc1cccnc1 | 6 | -0.94
COc1cccc(NC(=O)Nc2ccc(N3CCN(C(=O)c4ccccc4Cl)CC3)nc2)c1 | 6 | -0.54
CCS(=O)(=O)CCNC(=O)Cc1c[nH]c2cc(Cl)ccc12 | -3 | 0.33
O=C(N[C@H]1CCCN(C2CCCCCC2)C1)c1cnccn1 | -11 | 1.63
CCCc1ncc(C(=O)N2CC(=O)Nc3c(C)ccnc32)s1 | -4 | 0.77
CC1CC(NC(=O)c2cncn2-c2ccc(-c3cc(C(F)(F)F)cc(C(F)(F)F)c3)cc2)CC(C)(C)C1 (stereo unspecified) | 7 | -0.91
COc1cnc(C(=O)N2CCC[C@H](c3nc4ccccc4s3)C2)cc1O | -4 | 0.53
CCN(C(=O)c1ccnn1C1CCC1)c1ccc(Br)cn1 | -13 | 2.29
Cc1cnc(C)n1CCC1CCN(C(=O)CC2CCCCC2)CC1 | -6 | 0.78
O=C(c1cc(-c2ccc3c(c2)OCO3)on1)N1CCc2ccccc2C1 | -7 | 1.24
O=C(Nc1ccc2c(c1)OCCO2)N1CCCCCCC1 | -11 | 1.67
O=C(NCCF)c1cncn1-c1ccc(-c2cc(C(F)(F)F)cc(C(F)(F)F)c2)cc1 | -3 | 0.41
Cc1cc(F)ccc1NC(=O)Cn1nc(C2CC2)c2c(C(F)F)cc(=O)[nH]c21 | 37 | -4.92
Cc1nc(CN(C)Cc2c[nH]nc2C2CCCCC2)no1 | 6 | -0.82
COc1ccc(C(=O)C2CCN([C@@H](C)CN3CCOCC3)CC2)cc1 | 37 | -3.32
O=C(NCc1ccc(Cl)cc1)c1c(O)c2cccnc2[nH]c1=O | -5 | 0.65
CCOc1ccccc1C(=O)Nc1c(-n2cnnc2)nn(C)c1C | 35 | -4.7
CC(=O)N1CCCN(C(=O)C[C@@H](c2ccccc2)c2cccc(Cl)c2)CC1 | -11 | 1
CCN(C(=O)c1cc(F)cc(Br)c1)c1ncc[nH]1 | 2 | -0.2
COCCN1CC2(CCC1=O)CCN(C(=O)c1ccc(N(C)C)nc1)CC2 | -7 | 1.11
C[C@@H](C(=O)N1CCC(n2ccnn2)CC1)c1ccc(Cl)s1 | -9 | 1.33
CCc1nc(CCNC(=O)N2C[C@H]3CCCC[C@H]3C2)no1 | 12 | -1.45
O=C1C2C(Cc3c[nH]c4ccccc34)NC3(C(=O)Nc4c(Cl)cccc43)C2C(=O)N1c1ccc2c(c1)OCO2 (stereo unspecified) | -7 | 0.92

From ChEMBL document CHEMBL4888484, “Replenishing the malaria drug discovery pipeline: Screening and hit evaluation of the MMV Hit Generation Library 1 (HGL1) against asexual blood stage Plasmodium falciparum ,using a nano luciferase reporter read-out” (2022)
